Test results published in PMC4336329 (PLoS ONE, 2015).
Out of some 310,000 compounds screened, about 14,000 (4.5%) showed an effect of 50% or more. The effect is printed as a negative number. The list shows a part of the results.

biological target: human ether-à-go-go-related gene (hERG) potassium channel (human, UniProt Q12809); experiment: primary screen, population patch clamp on CHO cells stably expressing hERG
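Also: peak tail current of the secondary pulse compared with the same well before compound.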

Sequence of human ether-à-go-go-related gene (hERG) potassium channel (Q12809 whole entry, looked up): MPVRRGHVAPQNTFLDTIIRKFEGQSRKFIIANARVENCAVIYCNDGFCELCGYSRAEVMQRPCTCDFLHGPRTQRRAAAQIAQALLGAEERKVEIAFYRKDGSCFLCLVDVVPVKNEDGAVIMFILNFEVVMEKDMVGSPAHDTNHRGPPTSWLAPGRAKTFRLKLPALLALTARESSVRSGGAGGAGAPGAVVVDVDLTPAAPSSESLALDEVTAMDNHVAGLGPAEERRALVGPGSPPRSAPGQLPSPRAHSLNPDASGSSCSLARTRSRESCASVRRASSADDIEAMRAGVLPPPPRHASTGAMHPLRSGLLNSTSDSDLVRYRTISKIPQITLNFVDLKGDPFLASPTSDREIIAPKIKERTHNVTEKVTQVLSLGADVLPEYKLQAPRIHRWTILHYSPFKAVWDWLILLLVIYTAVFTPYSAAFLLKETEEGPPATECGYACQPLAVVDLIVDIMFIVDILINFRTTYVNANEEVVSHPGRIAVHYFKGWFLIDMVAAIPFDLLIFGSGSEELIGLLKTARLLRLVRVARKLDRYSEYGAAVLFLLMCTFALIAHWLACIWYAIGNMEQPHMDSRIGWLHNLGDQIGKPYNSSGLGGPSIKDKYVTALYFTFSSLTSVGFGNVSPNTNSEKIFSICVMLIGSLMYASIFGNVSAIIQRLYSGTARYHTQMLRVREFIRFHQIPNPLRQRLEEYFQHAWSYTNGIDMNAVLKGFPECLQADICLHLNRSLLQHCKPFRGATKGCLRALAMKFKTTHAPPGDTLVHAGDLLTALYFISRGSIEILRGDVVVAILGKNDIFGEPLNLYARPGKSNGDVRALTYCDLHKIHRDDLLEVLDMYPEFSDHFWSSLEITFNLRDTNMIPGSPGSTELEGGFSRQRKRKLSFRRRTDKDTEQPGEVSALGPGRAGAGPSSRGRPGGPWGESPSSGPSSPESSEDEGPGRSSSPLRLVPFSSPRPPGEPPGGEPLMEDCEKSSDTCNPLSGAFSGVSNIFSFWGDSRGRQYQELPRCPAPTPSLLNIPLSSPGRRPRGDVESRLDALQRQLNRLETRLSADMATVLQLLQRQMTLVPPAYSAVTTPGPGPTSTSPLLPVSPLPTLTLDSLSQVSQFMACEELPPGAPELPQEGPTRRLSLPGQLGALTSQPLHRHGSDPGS

SMILES	hERG current change (%, negative = inhibition) at 10uM
CCOc1cc(/C=C2\C(=N)N3N=CSC3=NC2=O)ccc1OS(=O)(=O)c1ccccc1	-15%
Cc1ccc(C(=O)OC(C)CN2C(C)CCCC2C)cc1.Cl (centres unmarked)	-43%
C=CCNc1nc(Cl)nc(Nc2ccc(OC)cc2)n1	-7.32%
Cc1ccc(C)c(S(=O)(=O)N2CCN(C(=O)Cn3[nH]c(=O)c4ccccc4c3=O)CC2)c1	-2.47%
Cc1cccnc1NC(N)=S	9.08%
Cc1ccc(C2(C)NC(=O)N(CC(=O)c3ccc4c(c3)OCCO4)C2=O)cc1 (centres unmarked)	-2.04%
COc1cccc2sc3ccc(NCCC4CCCN4C)cc3c(=O)c12 (centres unmarked)	1.65%
COc1ccccc1NC1=CC(=O)CC(c2ccccc2)C1 (centres unmarked)	-5.26%
c1cnc2c(c1)ccc1ncccc12	14.1%
CCCCCn1c(=O)[nH]c2cc(C(=O)NCCN3CCOCC3)ccc2c1=O	3.63%
Cc1c(CN(C)C)c2c(n1Cc1ccccc1)C(=O)c1ccccc1-2.Cl	-75.6%
O=C(c1ccc2nc[nH]c2c1)N1CCN(S(=O)(=O)c2cccc(F)c2)CC1	12%
Cc1cnnc2c1-c1nonc1CC2	3.76%
O=C1CC(O)(c2ccccc2)C(c2ccccc2)=C1c1ccccc1 (centres unmarked)	5.2%
Cn1cnc([N+](=O)[O-])c1C(=O)Nc1cccc([N+](=O)[O-])c1	-4.68%
Cc1ccccc1NC(=O)c1ccc2c(c1)CCN2S(C)(=O)=O	10.2%
COc1ccc(S(=O)(=O)N(C)CC(=O)Nc2ccc(C)cc2)cc1OC	0.815%
O=C(CSc1nc(-c2cccs2)cc(C(F)(F)F)n1)NCc1ccco1	-9.61%
CC(C)/C=C1\CC/C(=C\c2cccnc2)C1=O	-10.9%
CCn1c(SCC(=O)Nc2cc(C)on2)nc2sc3c(c2c1=O)CCCC3	10.2%
O=C(CN1CCC(n2nnc3cc(F)ccc32)CC1)Nc1ccc2c(c1)CCC2	-21.3%
O=C(Nc1ccc(S(=O)(=O)NCc2cccnc2)cc1)c1ccco1	10.2%
COc1ccc(N2CCN(CC(=O)Nc3cc(C)on3)CC2)cc1.O=C(O)C(=O)O	0.616%

SMILES	hERG current change (%, negative = inhibition) at 10uM
O=C(c1ccccc1)c1cc2cc(Cl)ccc2[nH]1	15.1%
CSc1nc(C)cc(Oc2ccc(=O)[nH]n2)n1	4.47%
CN(C)C(=O)c1ccccc1Sc1cc(Cl)ccc1Cl	-14.5%
O=C(NCCSc1c(-c2ccccc2)[nH]c2ccccc12)c1cc2ccccc2oc1=O	-9.48%
COc1ccc(/C=N/NC(=S)Nc2ccccc2[N+](=O)[O-])cc1O	11.5%
Cc1cc(C(=O)COC(=O)c2ccccc2O)c(C)n1Cc1cccs1	-5.84%
Cc1cccc(Nc2c3c(nc4ccccc24)CCC3)c1.Cl	-71.5%
O=C(Cn1nnc(-c2ccccc2)n1)NC(=O)NC1CCCC1	9.53%
CCOc1ccc2nc(Cl)c(/C=C/C(=O)c3ccco3)cc2c1	14%
Cc1cccc(C)c1NC(=O)CN(C)C(=O)C1CCCCC1	-7.37%
Cc1ccc(O)c(NC(=O)c2cccc(NC(=O)c3ccco3)c2)c1	-46.5%
Nc1nc(SCC(=O)NCCCN2CCOCC2)nc2sc3c(c12)CCC3	-9.2%
COc1ccc(C)cc1NC(=O)CN1C(=O)CSc2ccc(S(=O)(=O)N3CCCC3)cc21	18.9%
O=S(=O)(c1cc(Cl)c(Cl)cc1Cl)N1CCN2CCCC2C1 (centres unmarked)	2.05%
C=CCn1cc(C(=O)NCc2ccco2)c(=O)c2cc(S(=O)(=O)N3CCCCCC3)ccc21	-36.4%
CN(CCO)c1c2c(nc3cc(-c4cccc(F)c4)nn13)CCCC2	-40.2%
O=C(NC1CCCC1)c1c[nH]c2ccc(F)cc2c1=O	13.2%
CC(C)(C)c1cc(C(F)(F)F)c(C#N)c(=O)[nH]1	25%
Cc1ccc(-n2cccc2/C=C2\C(=N)N3N=C(C(C)C)SC3=NC2=O)cc1	11.4%
Cc1c(Cl)cccc1NC(=O)CSc1nnc(CCNC(=O)OC(C)(C)C)o1	-28.4%
Cc1ccc(C(=O)COC(=O)c2ccc3c(c2)C(=O)N(c2cccc4ncccc24)C3=O)cc1C	6.91%
Cc1cc(C)n(-c2nc(NC(C)C)nc(NC(C)C)n2)n1	-16.5%
Cc1ccc(C2C3=C(CC(C)(C)CC3=O)NC3=C2C(=O)c2ccccc23)cc1 (centres unmarked)	-2.02%

SMILES	hERG current change (%, negative = inhibition) at 10uM
CC(C)(C)NC(=O)C(c1ccco1)N(C(=O)c1csnn1)c1ccccc1 (centres unmarked)	-4.55%
C[C@@H]1C(=O)O[C@H]2[C@H]1CC[C@@]1(C)C(=O)C=C[C@@](C)(O)[C@H]21	15.6%
Cc1cc(C)nc(/N=C(\N)Nc2ccc(S(=O)(=O)Nc3nccc(C)n3)cc2)n1	19.8%
N#CC1=C2N=C(N)c3ccccc3N2C2=C(C(=O)CCC2)C1c1ccc(F)cc1 (centres unmarked)	-19.5%
CC(CNC(=O)CCS(=O)(=O)c1ccc2c(c1)oc(=O)n2C)c1ccccc1 (centres unmarked)	8.49%
CCOC(=O)c1cnc2sccn2c1=O	12.1%
COc1ccccc1CN1CCCC(CN(CCN(C)C)C(=O)c2ccc(C)cc2)C1 (centres unmarked)	-12.9%
Cc1ccc(NC(=O)CSc2nnc(-c3cccs3)o2)cc1S(=O)(=O)N(C)C	-5.04%
CCOc1cc(C(=O)Nc2ccc(S(=O)(=O)NC3=NCCCCC3)cc2)cc(OCC)c1OCC	23.6%
Cc1ccc(C)c(-n2c(CNC(=O)c3ccco3)nnc2SCC(=O)N2CCc3ccccc32)c1	2.31%
O=C(c1c[nH]c(C(=O)C(Cl)(Cl)Cl)c1)c1ccccc1Cl	17.5%
COc1cccc(NC(=O)CSc2ncnc3c2oc2ccccc23)c1	4.57%
Cc1oc2c(O)c(O)ccc2c(=O)c1-c1ccccc1	4.11%
CC1(C)CC2CC(C)(CN2C(=O)COC(=O)CNC(=O)c2ccc(Cl)c(Cl)c2)C1 (centres unmarked)	-20.9%
Cc1nc(SCC(=O)Nc2ccccn2)n[nH]1	20.7%
O=C(NNc1nc(-c2ccccc2)c2cc(Br)ccc2n1)c1ccc(S(=O)(=O)N2CCCCC2)cc1	8.26%
O=C(O)c1ccc(N2C(=O)c3[nH]nc(-c4ccccc4)c3C2c2ccccc2)cc1 (centres unmarked)	22.3%
C=CCn1cccc(C(=O)Nc2ccc(OC)c(OC)c2)c1=O	21%
CN1CCN(c2nc3nonc3nc2N2CCN(C)CC2)CC1	0.911%
CC(C)(C)NC(=O)NCCc1ccccc1	11%
Cc1nnc(SCc2cccs2)[nH]c1=O	-8.43%
CCOC(=O)CNC(=O)CSc1ncnc2c1cnn2-c1ccc(C)cc1	2.15%
O=C(/C=C/c1ccc2c(c1)OCO2)c1cccnc1	-27.8%

SMILES	hERG current change (%, negative = inhibition) at 10uM
CCOC(=O)Cc1cc(C)[nH]c1C(=O)OCC	-5.81%
CCOC(=O)c1ccc(CNC(=O)Cn2nnc(-c3cccc(C)c3)n2)o1	-10.9%
O=C(CN1CCC(C(O)(c2ccccc2)c2ccccc2)CC1)Nc1ccccc1	-42.1%
Cc1cccc(-c2cc3nc(C)cc(NCCCn4ccnc4)n3n2)c1	-59.3%
O=C(CN(Cc1ccco1)C(=O)CNS(=O)(=O)c1ccccc1)NCc1ccccc1	-20.4%
COc1ccc(NC(=O)CS(=O)CC(=O)N2CCN(C3CCCC3)CC2)cc1 (centres unmarked)	27.2%
CCc1ccccc1NC(=S)N(CCOC)C(C)c1ccco1 (centres unmarked)	-25.1%
CC(=O)OC1(c2ccccc2)CC(C(C)(C)C)CN(C(C)(C)C)C1.Cl (centres unmarked)	6.9%
CC(=O)Nc1c(O)c2ccccc2[nH]c1=O	4.92%
CCOc1ccc(-n2nc(C(=O)N3CCN(CC)CC3)c3ccccc3c2=O)cc1	-14.5%
CC(C)n1c(=O)n(CC(=O)NCC2CCCO2)c(=O)c2c3c(sc21)COC(C)(C)C3 (centres unmarked)	4.21%
CCOC(=O)C1CCCN(C(=O)CCc2nnc(-c3ccc(C(C)=O)s3)o2)C1 (centres unmarked)	13%
COCCNC(=S)N/N=C(\C)c1ccc(OC(F)F)cc1	-4.58%
Cc1ccc(NC(=O)Cn2cnc3cc([N+](=O)[O-])ccc3c2=O)cc1	0.77%
COc1ccc(OCC(=O)NNC(=O)C2CCN(c3ncnc4sc(C)c(C)c34)CC2)cc1	-52.5%
CON(c1nc(N(C)C)nc(N(C)C)n1)S(=O)(=O)c1ccccc1Cl	-8.85%
CCOC(=O)C1CCN(C(=O)CNS(=O)(=O)c2cccs2)CC1	-0.439%
CC1CCCCC1NC(=O)C1CCCN1S(=O)(=O)c1cccc2nsnc12 (centres unmarked)	2.7%
COc1cc(OC)c(NC(=O)/C=C/C(=O)O)cc1Cl	17.3%
COc1ccc(NC(=O)CN(c2ccc(OC)c(Cl)c2)S(=O)(=O)c2ccccc2)c(OC)c1	8.77%
